Test results published in PubChem BioAssay AID624296 (National Center for Advancing Translational Sciences (NCATS), 2012).
The whole screen tested about 350,000 compounds, of which about 9,900 (2.8%) were called active. The shares of active, inactive and inconclusive entries below differ from those in the screen. Calls follow the shape of the dose curve; as a rule, active = well fitted activation curve with a large enough effect; inconclusive = small, poorly fitted or top-dose-only effect; inactive = no such curve, though single readings can be large or run the other way. No potency is given beside an inconclusive call; the fits are too rough.

assay: A quantitative high throughput screen for small molecules that induce DNA re-replication in MCF 10a normal breast cells.; also: nearly all actives have a fitted effect of over 50% in size; as to activity, positive = re-replication: % of control where 0% means no effect; details: MCF 10A DNA re-replication, Hoechst nuclear intensity, 48 h; activity, positive = re-replication: at 46.1 µM (top of the series)
Potency is read from the fitted curve at half-maximal effect; tags tell the direction and shape of the fitted curve.

SMILES	Potency	activity, positive = re-replication
O=C(Nc1ccccc1Cl)c1sccc1-c1ccccc1	inconclusive [activator, single point]	–
O=C(Nc1ccccc1)N1CCCC(c2nc(-c3cccs3)no2)C1 (configuration not stated)	–	inactive: -0.135%
COCC(=O)N(Cc1cc2cccc(C)c2[nH]c1=O)c1ccccc1	–	inactive: -1.14%
O=C(Nc1nc(-c2ccc(F)c(F)c2)cs1)C1=COCCO1	inconclusive [activator, single point]	–
CS(=O)(=O)c1cc([N+](=O)[O-])c(Sc2nc3ccccc3[nH]2)c([N+](=O)[O-])c1	inconclusive [activator, single point]	–
CCCCCCCCCC(=O)NNC(=O)c1c(O)c2ccccc2n(CC)c1=O	–	inactive: 6.27%
CSc1ccccc1NC(=O)CN1c2ccccc2CC1C (configuration not stated)	inconclusive [activator, single point]	–
CC12CC3CC(C)(C1)CC(C(=O)NCc1ccncc1)(C3)C2	–	inactive: 1.51%
O=c1oc(-c2ccc(O)c(O)c2)cc2cccc(O)c12	active: 7.31 µM	–
c1ccc(Cc2cc[n+](Cc3ccccn3)cc2)cc1	–	inactive: -0.606%
O=C(c1nnc(-c2ccc(Cl)cc2)o1)C1CCCC1	–	inactive: 0.097%
CCN1C(=O)[C@H]2[C@H]3CN=C(SC)N3[C@@](CC)(C(=O)OC)[C@H]2C1=O	inconclusive [activator, single point]	–
Nc1c(Cl)cc(-c2cn(CCC(=O)O)c(-c3ccc(Cl)nc3)n2)cc1Cl	–	inactive: 5.17%
Cc1ccc(C(=O)OCC(=O)N(CCc2ccccc2)Cc2ccccc2)cc1S(=O)(=O)N1CCOCC1	–	inactive: 8.66%
CC(C)NS(=O)(=O)c1cc(C(=O)O)ccc1Cl	inconclusive [activator, single point]	–
CCOC(=O)C1=C(CSc2nc3c(cc2C#N)CN(C)CC3)OC(N)=C(C#N)C1c1ccccc1 (configuration not stated)	inconclusive [activator, single point]	–
COc1ccc(OC)c(/C=C/C(=O)Nc2cccc(S(=O)(=O)NC3=NCCCCC3)c2)c1	inconclusive [activator, single point]	–
COC(=O)c1ccc2c(c1)sc(=NC(=O)CCS(=O)(=O)c1ccccc1)n2C	inconclusive [activator, single point]	–
COCCN(C(=O)COC(=O)CCCc1c[nH]c2ccccc12)c1c(N)n(Cc2ccccc2)c(=O)[nH]c1=O	–	inactive: -3.6%
CCOC(=O)c1c(C)[nH]c(N=Nc2cccc(C)c2)c1C	–	inactive: -1.09%
S=c1nc(-c2ccccc2)n(-c2ccccc2)[nH]1	–	inactive: 0.476%
O=C(Nc1ccc(N2CCN(C(=O)c3ccco3)CC2)c(Cl)c1)c1cccs1	inconclusive [activator, single point]	–
CCOC(=O)c1cnc2nc(NCc3ccc(OCc4ccccc4)cc3)[nH]n2c1=O	–	inactive: 14.9%
C[C@H](CO)N1C[C@H](C)[C@H](CN(C)S(=O)(=O)c2cccs2)Oc2ccc(NC(=O)Nc3ccc4c(c3)OCO4)cc2CC1=O	inconclusive [activator, partial curve, poor fit]	–

SMILES	Potency	activity, positive = re-replication
O=C(O)/C(=C/c1ccc(Cl)c([N+](=O)[O-])c1)c1ccc(S(=O)(=O)N2CCCCC2)s1	inconclusive [activator, single point]	–
CCOC(=O)c1cnc(-n2nc(C)cc2C)nc1NCc1ccc2c(c1)OCO2	inconclusive [activator, single point]	–
O=C(Nc1nnc(-c2cccs2)o1)C1CC1	–	inactive: 0.576%
COc1ccc(Cc2nnc(NC(=O)c3cccc(C)c3)s2)cc1	–	inactive: -53.5%
C=C(C)CNC(=S)NNC(=O)c1ccc(Br)cc1	–	inactive: 7.28%
CC(C)(C)c1ccc(S(=O)(=O)Nc2ccc(Cc3ccncc3)cc2)cc1	inconclusive [activator, partial curve, poor fit]	–
CSC(=S)N/N=C/c1ccc(N(C)C)cc1	–	inactive: 1.26%
COc1ccc(NC(=S)N(CCCN2CCOCC2)C(C)c2cc3cccc(OC)c3o2)cc1 (configuration not stated)	–	inactive: 12.8%
COc1cccc(/C=N\NC(=O)C2=NNC(=O)C2C)c1O (configuration not stated)	inconclusive [activator, single point]	–
COc1cccc(/C=C2/NC(=O)NC2=O)c1OCC(=O)Nc1ccccc1	inconclusive [activator, partial curve, poor fit]	–
CCCCOc1ccc(C(=O)OC2CC(C)N(C)CC2C)cc1 (configuration not stated)	inconclusive [activator, partial curve, poor fit]	–
CN(c1nccc(=O)[nH]1)C1CCN(c2nc3ccccc3n2Cc2ccc(F)cc2)CC1	inconclusive [activator, full curve]	–
Cc1cc(NC(=O)CSc2nc3c(c(-c4cccnc4)c2C#N)CCC3)no1	inconclusive [activator, single point]	–
O=C(COC(=O)c1cccc(Cl)c1)NCc1ccccc1	–	inconclusive: -28.7% [activator]
CCOC(=O)C1CCN(CC(=O)Nc2c(C(=O)OC)[nH]c3ccc(Cl)cc23)CC1	inconclusive [activator, partial curve, poor fit]	–
Cc1sc2nc(SCC(=O)C(C)(C)C)n(Cc3ccco3)c(=O)c2c1C	active: 5.8 µM	–
CCNC(=S)NNC(=O)CCn1cc(C)cn1	–	inactive: -2.37%
OC(CN1CCN(c2cccc(C(F)(F)F)c2)CC1)c1c[nH]c2ccccc12 (configuration not stated)	inconclusive [activator, single point]	–
CCCCNc1nc(N(C)c2ccccc2)nc(-n2ccnc2)n1	inconclusive [activator, single point]	–
CC(=O)c1ccc(N2Cc3ccccc3C2=NC(=O)c2cccs2)cc1	–	inactive: 14.5%
COc1cc(/C=C/C(=O)OCC(=O)NC2CC2)cc(OC)c1OC	–	inactive: -2.1%
Fc1cc(F)cc(-c2c(-c3ccccc3)ncc3ccc(F)cc23)c1	inconclusive [activator, single point]	–
CCOC(=O)c1c(NC(=O)C(C)NCc2ccco2)sc2c1CCC(C)C2 (configuration not stated)	inconclusive [activator, partial curve, poor fit]	–
